# From the supplement of paper PMC7826260
# Some of the results follow. Viral Rep nickase domains cut single-stranded DNA in vitro for 1 h at 37 °C with 3 µM enzyme; only the middle of the 90-letter strands is printed. Uncut reads are compared with the no-enzyme pool on a log2 scale; uncut sequences lie near 0, cut ones below; no hit call is given. The scaling is to total reads, so uncut sequences can rise above 0 when many others are cut.
# Tested on: T1, Rep nickase domain of tomato golden mosaic virus
# T1 sequence (Rep 1-124, printed without the tag): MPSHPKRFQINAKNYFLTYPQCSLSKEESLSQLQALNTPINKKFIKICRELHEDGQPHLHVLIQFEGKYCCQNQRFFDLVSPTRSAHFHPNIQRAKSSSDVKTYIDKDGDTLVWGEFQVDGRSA
# Assay: uncleaved DNA left, log2 of reads against the no-enzyme library (log2 ratio); higher = less cleavage (more negative = more Rep cleavage of the k-mer); sequences stand for … in CTCGTCCG…ACCGGAGA
# Protocol: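 A pool of 90-nt single-stranded DNAs with seven random bases just before the constant AC of the nick site (name = the seven bases) was cut by 3 µM recombinant His6-SUMO-tagged Rep nickase domain (300 nM DNA, 50 mM HEPES pH 8.0, 50 mM NaCl, 1 mM MnCl2, 1 h, 37 °C, three replicates). Uncut DNA was amplified and sequenced.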
row,Sequence,uncleaved DNA left (log2)
1,GCAAGCG,-0.0438
2,TCATCAG,0.0717
3,ACCGGTG,0.0813
4,GCTTGTG,-0.18
5,GCTATGG,-0.00816
6,AGCTAAC,0.0168
7,TGTCGTG,-0.202
8,CTCTCCA,-0.19
9,ATCCTAA,0.2
10,CCACTAT,-0.00706
11,ATACTCG,0.0436
12,AGGAATG,-0.0932
13,CAGTGTG,-0.144
14,TATGGAG,0.165
15,ATCTCGT,0.00345
16,TTTGCCC,-0.135
17,TCAGGAA,0.0638
18,TCATACA,-0.0327
19,GGTGCTT,-0.0207
20,CTAAAAG,-0.00602

row,Sequence,uncleaved DNA left (log2)
1,GATATAG,0.0224
2,GCAACAC,0.0569
3,TAATCTT,-4.74
4,CGGTCAT,-0.113
5,TGATGAA,0.114
6,TTGACTT,-0.09
7,CCTCTTC,-0.023
8,TACACTT,-0.332
9,AGTTGCT,-0.0493
10,CACGGAA,0.00125
11,AACAAGG,0.0745
12,CGCGCAA,-0.162
13,CGTTCGT,-0.183
14,TAACTGT,-0.277
15,GGGTGCT,-0.0644
16,CTGATGT,-0.156
17,TTACCGT,-0.204
18,TTACCTC,-0.0125
19,ATCGGGA,0.107
20,AACTGTG,0.16
